Experimental data taken from PubChem BioAssay AID1460 (National Center for Advancing Translational Sciences (NCATS), 2008).
The whole screen tested about 270,000 compounds, of which about 5,800 (2.1%) were called active. Inconclusive results, whose numbers are uncertain, are shown with a selection of clear calls. Calls come from the whole dose curve; as a rule, active = well fitted inhibition curve with a large enough effect; inconclusive = small, poorly fitted or top-dose-only effect; inactive = flat fitted curve, though single readings scatter. A potency beside an inconclusive call is a rough fit, not a confirmed value.

The compounds below were run against Microtubule-associated protein tau (Homo sapiens) (UniProt P10636) (assay: qHTS for Inhibitors of Tau Fibril Formation, Thioflavin T Binding). Conditions: recombinant tau K18 P301L (four-repeat tau fragment), heparin-induced fibrillization, ThT fluorescence; series mostly up to 57.4 µM; activity, negative = inhibition: at the top concentration.
UniProt P10636, sequence (P10636 whole entry, looked up, the tested form may be a part): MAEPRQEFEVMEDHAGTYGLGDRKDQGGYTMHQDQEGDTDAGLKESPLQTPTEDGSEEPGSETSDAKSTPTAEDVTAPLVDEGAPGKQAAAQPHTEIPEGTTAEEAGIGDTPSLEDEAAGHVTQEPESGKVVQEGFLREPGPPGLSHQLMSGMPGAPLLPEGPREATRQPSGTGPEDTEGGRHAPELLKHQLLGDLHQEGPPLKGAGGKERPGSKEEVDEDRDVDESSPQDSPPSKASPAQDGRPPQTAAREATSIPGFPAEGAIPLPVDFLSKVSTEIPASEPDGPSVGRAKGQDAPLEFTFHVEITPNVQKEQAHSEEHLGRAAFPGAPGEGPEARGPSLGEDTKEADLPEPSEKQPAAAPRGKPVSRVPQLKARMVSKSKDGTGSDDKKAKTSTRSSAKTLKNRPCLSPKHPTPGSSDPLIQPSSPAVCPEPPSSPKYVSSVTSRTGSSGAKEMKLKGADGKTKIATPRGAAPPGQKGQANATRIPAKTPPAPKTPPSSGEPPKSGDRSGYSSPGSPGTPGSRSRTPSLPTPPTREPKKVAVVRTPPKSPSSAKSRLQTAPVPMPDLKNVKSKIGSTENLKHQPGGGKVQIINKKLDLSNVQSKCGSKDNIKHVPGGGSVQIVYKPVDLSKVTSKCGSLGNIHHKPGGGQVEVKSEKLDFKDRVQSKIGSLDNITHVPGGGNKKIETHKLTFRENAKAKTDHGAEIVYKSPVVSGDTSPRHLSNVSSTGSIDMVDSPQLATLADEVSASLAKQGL
Procedure, shortened: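 Recombinant human tau K18 fragment […] carrying P301L, 15 uM unlabeled plus 0.24 uM Alexa 594-labeled, was fibrillized with 20 uM heparin in 100 mM sodium acetate pH 7 for 6 hr at 37 C; 30 uM ThT fluorescence read after 1 hr.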
% is set by controls: 0 for no effect and ±100 for the full control effect; potency is the fitted concentration of half-maximal effect; tags give direction and shape of the fitted curve.
Note: nearly all actives have a fitted effect of over 55% in size.

| Compound | activity, negative = inhibition | Potency |
| --- | --- | --- |
| CCc1nc(C)cc2c1sc1ccccc12 | inactive: -13.9% | – |
| Cc1ccc(-n2ncc(C(=O)N3CCN(Cc4ccccc4)CC3)c2C2CCN(C(=O)OC(C)(C)C)CC2)cc1 | – | inconclusive: 39.8 µM [inhibitor, partial curve] |
| CC1=N/C(=C\c2ccc([N+](=O)[O-])cc2)C(=O)N1c1ccc(Br)c(C)c1 | – | inconclusive: 15.8 µM [inhibitor, partial curve] |
| C=CCN1C(=O)S/C(=C\c2ccc(N3CCOCC3)cc2C)C1=O | – | inconclusive: 3.16 µM [inhibitor, full curve] |
| Cc1ccccc1Nc1nc(N)nc(CSc2nnc3sc4ccccc4n23)n1 | – | inconclusive: 39.8 µM [inhibitor, partial curve, poor fit] |
| COc1ccc(-c2cc(C(F)(F)F)n3nc(C(=O)O)c(Cl)c3n2)cc1OC | – | inconclusive: 14.1 µM [inhibitor, partial curve, poor fit] |
| O=C(CN1CCSCC1)c1c[nH]c2ccccc12 | inactive: -8.47% | – |
| O=C(O)Cn1nnnc1SCC(=O)Nc1ccc(OC(F)(F)F)cc1 | – | inconclusive: 3.55 µM [inhibitor, full curve] |
| COc1ccccc1-c1nnc(SCC(N)=O)o1 | inactive: 7.71% | – |
| CCN(CC)CCNC(=O)c1ccc(-c2nc(CS(=O)(=O)c3ccc(C)cc3)c(C)o2)cc1 | inactive: 9.14% | – |
| O=C(/C=C/c1ccc(OCc2ccccc2)cc1)c1cccs1 | – | inconclusive: 11.2 µM [inhibitor, partial curve] |
| CC(C)(C)NC(=O)CSc1nnc(C2CC2)n1-c1ccccc1 | inactive: -3.99% | – |
| Cc1cc(C)c(OCC(=O)Nc2nc(-c3ccccn3)cs2)c(C)c1 | – | inconclusive: 28.2 µM [inhibitor, partial curve, poor fit] |
| COc1ccccc1OCCn1c(C(C)Oc2ccccc2)nc2ccccc21 (stereo not drawn) | – | inconclusive: 31.6 µM [inhibitor, single point] |
| Cc1cc(C)cc(C(=O)Nc2c(C(=O)Nc3ccccc3F)oc3ccccc23)c1 | inactive: 16.8% | – |
| COc1ccc(NC(=O)CSc2nnc(Cc3cccn3C)n2CCc2ccccc2)cc1OC | – | inconclusive: 15.8 µM [inhibitor, partial curve] |
| C=CCn1c(COc2ccc(CC)cc2)nnc1SC/C(O)=C(\C#N)c1nc2ccccc2[nH]1 | – | inconclusive: 5.62 µM [inhibitor, partial curve] |
| CN1/C(=C/C2CC(=O)N(c3ccc([N+](=O)[O-])cc3)C2=O)C(C)(C)c2ccccc21 (stereo not drawn) | – | active: 14.1 µM |
| Cc1ccc(S(=O)(=O)NC(=O)c2ccc(-c3ccc(C)c4ccccc34)o2)cc1 | – | inconclusive: 12.6 µM [inhibitor, partial curve, poor fit] |
| Cc1oc(C(=O)O)cc1COc1ccc2c3c(c(=O)oc2c1)CCC3 | – | inconclusive: 2 µM [inhibitor, full curve] |
| N#CC(c1ccc(Cl)cc1)N1CCOCC1 (stereo not drawn) | inactive: -4.82% | – |
| Cc1ccc(S(=O)(=O)c2c(C)nn(C(C)(C)C)c2OC(=O)CC(C)C)cc1 | inactive: -10.4% | – |

| Compound | activity, negative = inhibition | Potency |
| --- | --- | --- |
| COc1cccc2cc(-c3cn4c(n3)sc3cc(F)ccc34)c(=O)oc12 | – | inconclusive: 7.08 µM [inhibitor, single point] |
| C=CCn1c(O)c(N=NC(=S)Nc2ccccc2C)c2cc(S(=O)(=O)N3CCOCC3)ccc21 | inactive: -16.9% | – |
| CCC(CC)C(=O)Nc1ccc(Sc2ccc([N+](=O)[O-])cc2)cc1 | – | inconclusive: 1.41 µM [inhibitor, full curve] |
| Cc1cccc(C2=N/C(=C\c3cccs3)C(=O)O2)c1 | – | inconclusive: 14.1 µM [inhibitor, single point] |
| CCOC(=O)Cc1csc(NC(=O)CSc2ncnc3c2cnn3-c2ccc(OC)cc2)n1 | – | inconclusive: 0.355 µM [inhibitor, full curve] |
| CCOC(=O)c1ccc(NC(=O)C2Cc3ccccc3C(=O)O2)cc1 (stereo not drawn) | – | inconclusive: 0.631 µM [inhibitor, full curve] |
| Clc1cccc(N2CCN(c3ncnc4c3nc3n4CCCC3)CC2)c1 | – | inconclusive: 28.2 µM [inhibitor, single point] |
| Cc1ccc(-c2csc(NC(=O)c3ccc(-c4ccccc4)cc3)n2)o1 | – | inconclusive: 0.794 µM [inhibitor, full curve, poor fit] |
| Nc1ccc2nc(CCCCCCCCc3nc4ccc(N)cc4[nH]3)[nH]c2c1 | – | inconclusive: 11.2 µM [inhibitor, partial curve] |
| CCOc1ccccc1OCc1nn2c(COc3ccccc3)nnc2s1 | – | inconclusive: 44.7 µM [inhibitor, partial curve, poor fit] |
| Nc1ncnc(Oc2cccc3cccnc23)c1[N+](=O)[O-] | – | inconclusive: 31.6 µM [inhibitor, single point] |
| Cc1ccc(-c2csc3ncnc(OCC(=O)NC(=O)NCc4ccco4)c23)cc1 | – | inconclusive: 44.7 µM [inhibitor, single point] |
| CCN1CCOC(=O)C1CC(=O)Nc1cccc(OC)c1 (stereo not drawn) | – | inconclusive: 10 µM [inhibitor, partial curve] |
| O=C(NNc1nc2ccccc2s1)Nc1ccc(Cl)c(Cl)c1 | – | inconclusive: 25.1 µM [inhibitor, single point] |
| FC(F)(F)c1ccccc1NC(=S)NN=C1CCCCCC1 | – | inconclusive: 20 µM [inhibitor, single point] |
| COc1ccc(/C(N)=N/OC(=O)c2cccc([N+](=O)[O-])c2)cc1OC | – | inconclusive: 7.08 µM [inhibitor, partial curve] |
| Cc1ccccc1NC(=O)CCC(=O)N/N=C/c1cc([N+](=O)[O-])ccc1O | – | inconclusive: 17.8 µM [inhibitor, partial curve] |
| CCOc1ccc(CNc2ccc3c(c2)nc(C)n3C)cc1 | – | inconclusive: 28.2 µM [inhibitor, single point] |
| Nc1c(NCCCN2CCOCC2)c2ccccc2oc1=O | – | inconclusive: 17.8 µM [inhibitor, single point] |
| C/C=C/C=N/Nc1nc(-c2ccc([N+](=O)[O-])cc2)cs1 | – | active: 3.55 µM |
| N#Cc1c2c(c(Nc3ccc(O)cc3)n3c1nc1ccccc13)CCC2 | – | inconclusive: 2.82 µM [inhibitor, full curve] |
